# Data from the supplement of paper PMC8728848.
# The list shows a part of the results.
# B1: Mg1lysM (Mycosphaerella graminicola) (protein)
# chain: QRNPITITPQFDCGATNSQQYVARSGDTLTKIAQEIYHDVVGVCDIARANNLADPNRIDAGTPYTIPINCQTYDRNSCL
# What was measured:
# Assay in all cases: glycan array binding signal (z-score within array); higher = stronger binding
# Conditions in all cases: glycan notation: IUPAC condensed, linker removed
# [1] = biological target: Fuc(a1-2)[GalNAc(b1-3)]Gal
# How it was run: (§1)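 Glycan array data were curated from 3228 arrays in the Consortium for Functional Glycomics database and kept only where the protein sequence was available. Glycan names were converted to IUPAC-condensed notation, and columns mapping to the same glycan were averaged. The binding signal is a within-array Z-score, averaged across arrays of the same protein sequence at different concentrations or buffers and across linkers. Negative Z-scores can be read as non-binding.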
# Fuc(a1-3)GlcNAc = biological target: Fuc(a1-3)GlcNAc
# How it was run: as §1
# [2] = biological target: Fuc(a1-3)[Gal(b1-4)]Glc6S
# How it was run: as §1
# [3] = biological target: Fuc(a1-3)[Gal(b1-4)]GlcNAc
# How it was run: as §1
# [4] = biological target: Fuc(a1-3)[Gal(b1-4)]GlcNAc(b1-2)Man
# How it was run: as §1
# [5] = biological target: Fuc(a1-3)[Gal(b1-4)]GlcNAc(b1-2)Man(a1-3)[Fuc(a1-3)[Gal(b1-4)]GlcNAc(b1-2)Man(a1-6)]Man(b1-4)GlcNAc(b1-4)GlcNAc
# How it was run: as §1
# [6] = biological target: Fuc(a1-3)[Gal(b1-4)]GlcNAc(b1-2)Man(a1-3)[Fuc(a1-3)[Gal(b1-4)]GlcNAc(b1-2)Man(a1-6)]Man(b1-4)GlcNAc(b1-4)[Fuc(a1-6)]GlcNAc
# How it was run: as §1
# [7] = biological target: Fuc(a1-3)[Gal(b1-4)]GlcNAc(b1-3)Gal(b1-3)[Fuc(a1-4)]GlcNAc
# How it was run: as §1
# [8] = biological target: Fuc(a1-3)[Gal(b1-4)]GlcNAc(b1-3)Gal(b1-4)[Fuc(a1-3)]GlcNAc
# How it was run: as §1
# [9] = biological target: Fuc(a1-3)[Gal(b1-4)]GlcNAc(b1-3)Gal(b1-4)[Fuc(a1-3)]GlcNAc(b1-3)Gal(b1-4)[Fuc(a1-3)]GlcNAc
# How it was run: as §1
# [10] = biological target: Fuc(a1-3)[Gal(b1-4)]GlcNAc(b1-3)GalNAc
# How it was run: as §1
# [11] = biological target: Fuc(a1-3)[Gal(b1-4)]GlcNAc(b1-6)GalNAc
# How it was run: as §1
# [12] = biological target: Fuc(a1-3)[Gal(b1-4)]GlcNAc(b1-6)[Gal(b1-3)GlcNAc(b1-3)]Gal(b1-4)Glc
# How it was run: as §1
# [13] = biological target: Fuc(a1-3)[Gal(b1-4)]GlcNAc6S
# How it was run: as §1
# [14] = biological target: Fuc(a1-3)[Gal3S(b1-4)]Glc
# How it was run: as §1
# [15] = biological target: Fuc(a1-3)[Gal3S(b1-4)]GlcNAc
# How it was run: as §1
# [16] = biological target: Fuc(a1-3)[Gal3S(b1-4)]GlcNAc6S
# How it was run: as §1
# [17] = biological target: Fuc(a1-3)[GalNAc(b1-4)]GlcNAc
# How it was run: as §1
# [18] = biological target: Fuc(a1-3)[GalNAc(b1-4)]GlcNAc6S
# How it was run: as §1
# Fuc(a1-4)GlcNAc = biological target: Fuc(a1-4)GlcNAc
# How it was run: as §1
# Fuc(b1-3)GlcNAc = biological target: Fuc(b1-3)GlcNAc
# How it was run: as §1
# Gal(a1-2)Gal = biological target: Gal(a1-2)Gal
# How it was run: as §1
# Gal(a1-3)Gal = biological target: Gal(a1-3)Gal
# How it was run: as §1
# Gal(a1-3)Gal(b1-3)GlcNAc = biological target: Gal(a1-3)Gal(b1-3)GlcNAc
# How it was run: as §1
# [19] = biological target: Gal(a1-3)Gal(b1-3)GlcNAc(b1-2)Man
# How it was run: as §1
# [20] = biological target: Gal(a1-3)Gal(b1-3)GlcNAc(b1-2)Man(a1-3)[Gal(a1-3)Gal(b1-3)GlcNAc(b1-2)Man(a1-6)]Man(b1-4)GlcNAc(b1-4)GlcNAc
# How it was run: as §1
# [21] = biological target: Gal(a1-3)Gal(b1-3)GlcNAc(b1-3)GalNAc
# How it was run: as §1
# [22] = biological target: Gal(a1-3)Gal(b1-3)GlcNAc(b1-6)GalNAc
# How it was run: as §1
# [23] = biological target: Gal(a1-3)Gal(b1-3)[Fuc(a1-4)]GlcNAc(b1-2)Man(a1-3)[Gal(a1-3)Gal(b1-3)[Fuc(a1-4)]GlcNAc(b1-2)Man(a1-6)]Man(b1-4)GlcNAc(b1-4)GlcNAc
# How it was run: as §1
# Gal(a1-3)Gal(b1-4)Glc = biological target: Gal(a1-3)Gal(b1-4)Glc
# How it was run: as §1
# Gal(a1-3)Gal(b1-4)GlcNAc = biological target: Gal(a1-3)Gal(b1-4)GlcNAc
# How it was run: as §1
# [24] = biological target: Gal(a1-3)Gal(b1-4)GlcNAc(b1-2)Man
# How it was run: as §1
# [25] = biological target: Gal(a1-3)Gal(b1-4)GlcNAc(b1-2)Man(a1-3)[Gal(a1-3)Gal(b1-4)GlcNAc(b1-2)Man(a1-6)]Man(b1-4)GlcNAc(b1-4)GlcNAc
# How it was run: as §1
# [26] = biological target: Gal(a1-3)Gal(b1-4)GlcNAc(b1-3)GalNAc
# How it was run: as §1
# [27] = biological target: Gal(a1-3)Gal(b1-4)GlcNAc(b1-6)GalNAc
# How it was run: as §1
# [28] = biological target: Gal(a1-3)Gal(b1-4)[Fuc(a1-3)]GlcNAc
# How it was run: as §1
# [29] = biological target: Gal(a1-3)Gal(b1-4)[Fuc(a1-3)]GlcNAc(b1-2)Man(a1-3)[Gal(a1-3)Gal(b1-4)[Fuc(a1-3)]GlcNAc(b1-2)Man(a1-6)]Man(b1-4)GlcNAc(b1-4)GlcNAc
# How it was run: as §1
# Gal(a1-3)GalNAc = biological target: Gal(a1-3)GalNAc
# How it was run: as §1
# [30] = biological target: Gal(a1-3)[Gal(a1-4)]Gal(b1-4)GlcNAc
# How it was run: as §1
# [31] = biological target: Gal(a1-4)Gal(b1-3)GlcNAc(b1-2)Man(a1-3)[Gal(a1-4)Gal(b1-3)GlcNAc(b1-2)Man(a1-6)]Man(b1-4)GlcNAc(b1-4)GlcNAc
# How it was run: as §1
# Gal(a1-4)Gal(b1-4)Glc = biological target: Gal(a1-4)Gal(b1-4)Glc
# How it was run: as §1
# Gal(a1-4)Gal(b1-4)GlcNAc = biological target: Gal(a1-4)Gal(b1-4)GlcNAc
# How it was run: as §1
# [32] = biological target: Gal(a1-4)Gal(b1-4)GlcNAc(b1-2)Man(a1-3)[Gal(a1-4)Gal(b1-4)GlcNAc(b1-2)Man(a1-6)]Man(b1-4)GlcNAc(b1-4)GlcNAc
# How it was run: as §1
# [33] = biological target: Gal(a1-4)Gal(b1-4)GlcNAc(b1-3)Gal(b1-4)Glc
# How it was run: as §1
# Gal(a1-4)GlcNAc = biological target: Gal(a1-4)GlcNAc
# How it was run: as §1
binder,measurement,setting,value
B1,glycan array binding signal (z-score),[1],-0.123
same,glycan array binding signal (z-score),Fuc(a1-3)GlcNAc,-0.084
same,glycan array binding signal (z-score),[2],-0.094
same,glycan array binding signal (z-score),[3],-0.069
same,glycan array binding signal (z-score),[4],-0.081
same,glycan array binding signal (z-score),[5],-0.095
same,glycan array binding signal (z-score),[6],-0.059
same,glycan array binding signal (z-score),[7],-0.077
same,glycan array binding signal (z-score),[8],-0.059
same,glycan array binding signal (z-score),[9],-0.077
same,glycan array binding signal (z-score),[10],-0.091
same,glycan array binding signal (z-score),[11],-0.077
same,glycan array binding signal (z-score),[12],-0.072
same,glycan array binding signal (z-score),[13],-0.068
same,glycan array binding signal (z-score),[14],-0.074
same,glycan array binding signal (z-score),[15],-0.075
same,glycan array binding signal (z-score),[16],-0.077
same,glycan array binding signal (z-score),[17],-0.495
same,glycan array binding signal (z-score),[18],-0.069
same,glycan array binding signal (z-score),Fuc(a1-4)GlcNAc,-0.078
same,glycan array binding signal (z-score),Fuc(b1-3)GlcNAc,-0.085
same,glycan array binding signal (z-score),Gal(a1-2)Gal,-0.038
same,glycan array binding signal (z-score),Gal(a1-3)Gal,-0.086
same,glycan array binding signal (z-score),Gal(a1-3)Gal(b1-3)GlcNAc,-0.053
same,glycan array binding signal (z-score),[19],-0.065
same,glycan array binding signal (z-score),[20],-0.054
same,glycan array binding signal (z-score),[21],-0.078
same,glycan array binding signal (z-score),[22],-0.069
same,glycan array binding signal (z-score),[23],-0.048
same,glycan array binding signal (z-score),Gal(a1-3)Gal(b1-4)Glc,-0.068
same,glycan array binding signal (z-score),Gal(a1-3)Gal(b1-4)GlcNAc,-0.062
same,glycan array binding signal (z-score),[24],-0.056
same,glycan array binding signal (z-score),[25],-0.089
same,glycan array binding signal (z-score),[26],-0.046
same,glycan array binding signal (z-score),[27],-0.089
same,glycan array binding signal (z-score),[28],-0.097
same,glycan array binding signal (z-score),[29],-0.004
same,glycan array binding signal (z-score),Gal(a1-3)GalNAc,-0.067
same,glycan array binding signal (z-score),[30],-0.056
same,glycan array binding signal (z-score),[31],-0.074
same,glycan array binding signal (z-score),Gal(a1-4)Gal(b1-4)Glc,-0.054
same,glycan array binding signal (z-score),Gal(a1-4)Gal(b1-4)GlcNAc,-0.058
same,glycan array binding signal (z-score),[32],-0.061
same,glycan array binding signal (z-score),[33],-0.086
same,glycan array binding signal (z-score),Gal(a1-4)GlcNAc,-0.065
